From PubChem BioAssay AID488969 (Vanderbilt High Throughput Screening Facility, 2010)
Whole data set: some 110,000 compounds, median “z-score” near -0.1, cut for the highest 2% near 2. Some of the results follow. Active and inactive are the calls of the source.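 How the source made its calls: active means z-score in the third read window above 3 or below -3; inactive means the rest.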

These compounds were tested against Metabotropic glutamate receptor 8 (Rattus norvegicus) (UniProt P70579) (assay: mGluR8 Gi/Go-coupled signaling modulation – cell-based, rat, thallium flux, HTS, primary screen (AID 488969)). Conditions: HEK293 rat mGluR8, GIRK (G protein-gated inwardly rectifying potassium channel) thallium flux, FluoZin2; at 10 µM; stronger effect = higher value; submaximal glutamate (EC20) added with thallium.
Sequence of UniProt P70579 (P70579 whole entry, looked up): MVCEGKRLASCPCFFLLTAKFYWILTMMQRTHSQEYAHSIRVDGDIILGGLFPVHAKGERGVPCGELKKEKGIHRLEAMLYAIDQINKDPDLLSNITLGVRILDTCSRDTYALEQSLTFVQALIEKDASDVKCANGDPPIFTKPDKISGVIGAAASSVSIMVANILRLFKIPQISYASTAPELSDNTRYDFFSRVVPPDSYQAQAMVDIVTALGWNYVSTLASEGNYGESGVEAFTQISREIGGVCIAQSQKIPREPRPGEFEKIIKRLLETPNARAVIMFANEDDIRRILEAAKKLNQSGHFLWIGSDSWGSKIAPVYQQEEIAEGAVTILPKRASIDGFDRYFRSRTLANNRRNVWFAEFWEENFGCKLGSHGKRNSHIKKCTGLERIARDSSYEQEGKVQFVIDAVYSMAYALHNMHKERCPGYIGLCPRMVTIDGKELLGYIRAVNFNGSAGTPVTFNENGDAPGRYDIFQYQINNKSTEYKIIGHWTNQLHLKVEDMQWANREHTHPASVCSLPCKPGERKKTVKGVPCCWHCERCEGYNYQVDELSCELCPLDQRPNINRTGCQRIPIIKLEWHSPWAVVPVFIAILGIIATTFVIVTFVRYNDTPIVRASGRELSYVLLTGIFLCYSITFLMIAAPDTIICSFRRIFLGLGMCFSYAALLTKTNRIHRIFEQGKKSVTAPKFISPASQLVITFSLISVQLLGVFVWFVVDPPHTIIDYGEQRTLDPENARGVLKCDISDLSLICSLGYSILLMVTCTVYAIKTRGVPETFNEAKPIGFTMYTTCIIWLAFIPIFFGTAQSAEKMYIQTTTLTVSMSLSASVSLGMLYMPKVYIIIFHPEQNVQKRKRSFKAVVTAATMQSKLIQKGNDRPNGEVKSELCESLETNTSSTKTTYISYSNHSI

Compound | z-score
COc1cccc(C(=O)N(Cc2ccco2)Cc2cc3cccc(C)c3[nH]c2=O)c1 | 0.716
CCCCc1ccc(C(=O)NC(C(=O)O)C(C)C)cc1 (configuration not stated) | -0.49
c1ccc(CCNc2ncnc3nc[nH]c23)cc1 | 0.0353
Fc1ccc2nc3n(c2c1F)CCCCCC3 | 0.337
COc1ccc(NC(=O)c2cccnc2Nc2ccccc2)cc1 | -0.282
CCOC(=O)COc1ncn(-c2ccccc2)n1 | 0.012
C/C(=N/NC(=O)c1ccccc1O)c1ccc(N2C(=O)C3CCCCC3C2=O)cc1 (configuration not stated) | 0.0283
Cc1cccc2c1N(CCCOc1ccccc1)C(=O)C2=O | -0.16
CCOC(=O)/C(=C\C=C\c1ccccc1)NC(=O)c1ccccc1 | -0.692
O=C(Nc1nc(-c2ccccc2)cs1)C1CCCO1 (configuration not stated) | -0.00109
Cc1nn(Cc2ccc(Cl)cc2)c(C)c1NC(=O)c1c(-c2ccccc2)noc1C | -0.167
CN(C)S(=O)(=O)Nc1ccc(Br)cc1F | 0.00731
CCCn1c(NCc2ccco2)nc2ccccc21 | -0.0878
CC1(C)CC(=O)C2=C(C1)OC(=O)C2(NC(=O)c1cccs1)C(F)(F)F (configuration not stated) | -0.153
Clc1ccc(-n2nnnc2CN2CCOCC2)cc1Cl | -0.0916
CCOc1ccc(NS(=O)(=O)c2ccc(N)cc2)cc1 | -0.108
COC(=O)c1ccccc1NC(=S)NC(NC(=O)c1ccccc1[N+](=O)[O-])C(Cl)(Cl)Cl (configuration not stated) | 2.67
Cc1nn(-c2ccc(Cl)cc2Cl)c(=O)c2ccccc12 | -0.155
COc1ccc(C)cc1NC(=O)C(OC(=O)c1cc(C)oc1C)c1ccccc1 (configuration not stated) | -0.184
CCC(C)N(C(=O)c1csnn1)C(C(=O)NC(C)(C)C)c1ccccc1 (configuration not stated) | -0.0354
Cc1cc(C)c(S(=O)(=O)NCc2ccncc2)c(C)c1 | -0.32
O=C(c1ccc(Cl)cc1)[C@@H]1[C@@H]2C(=O)N(c3ccccc3)C(=O)[C@@H]2C2c3ccccc3C=NN21 (some centres not stated) | 0.107
O=C1N(CCCN2C(=O)C3(OCCO3)c3ccccc32)c2ccccc2C12OCCO2 | -0.237

Compound | z-score
Cc1ccccc1Cn1nc(C)c(NC(=O)c2cc3n(n2)C(C(F)F)CC(C(F)F)N3)c1C (configuration not stated) | -0.667
COc1ccccc1NS(=O)(=O)c1cccc(C(=O)N/N=C/c2c(C)nn(-c3ccccc3)c2N2CCCC2)c1 | -0.504
Nc1nncn1C(=O)CCc1ccccc1 | 0.876
CC(C)CC(=O)Nc1cc(C(F)(F)F)ccc1N1CCOCC1 | -0.011
OCc1ccnc(Cl)c1 | -0.0809
CCOC(=O)c1oc2ccccc2c1CSc1nnnn1-c1ccc(OC)cc1 | -0.0172
COc1cc(C2NC(=O)C(C#N)=C(S)N2c2ccccc2)ccc1OC(C)C (configuration not stated) | -0.564
CCN(Cc1ccncc1)C(=O)C1CCN(S(=O)(=O)c2cccs2)CC1 | 0.152
Cc1cc(=O)oc2cc(OCC(=O)Nc3nnc(CC(C)C)s3)ccc12 | -0.0633
O=C(COC(=O)C1(c2ccc(Cl)cc2)CCCC1)N1CCc2ccccc21 | -0.252
CC(C)(C)c1cc(NC(=O)COC(=O)C2CC2)n(-c2ccccc2)n1 | 0.806
Cn1c(SC/C=C/c2ccccc2)nnc1-c1cnccn1 | -0.517
COc1ccc(OC)c(NC(=O)c2nnn(Cc3ccccc3C)c2N)c1 | 0.662
CC(C)CCNCC1OCc2ccccc2CO1 | -0.303
Cc1nnc2sc(SCc3ccccc3)nn2c1=O | -0.0579
O=C(Nc1cccnc1)C1CCCN1S(=O)(=O)c1ccc(Cl)c(Cl)c1 (configuration not stated) | 0.0506
COc1ccccc1NC(=S)NNC(=S)Nc1ccc(OC(F)F)cc1 | -0.345
Cc1ccc(NC(=O)NC2(C(=O)NCc3ccccc3)CCCCC2)cc1 | -0.11
O=C(CCNC(=O)Cn1ccc2ccccc2c1=O)NCCc1ccccc1Cl | -0.0359
COc1cccc(C2CC(c3ccccc3)Nc3ncnn32)c1 (configuration not stated) | 0.129
C=CCNC(=O)c1onc(CSc2ccc(OC)cc2)c1C(=O)O | 0.0269
O=c1c2ccsc2ncn1Cc1ccccc1F | -0.166
CCCn1nnnc1NC(=O)c1ccc(C)cc1Cl | -0.0666

Compound | z-score
O=C(NC1CCCCC1)C(c1ccco1)N(Cc1ccco1)C(=O)c1ccco1 (configuration not stated) | -0.364
O=C(Cn1nc(C(F)(F)F)c2c1CCCC2)NCCN1CCOCC1 | -0.184
Cc1nnnn1/C(=C\c1ccccc1)C(=O)OCC(=O)NC(C)(C)C | -0.0667
CCOc1ccccc1NC(=O)c1cccnc1 | -0.191
O=S(=O)(NCc1ccccc1)c1cccs1 | -0.245
CC(C)NC(=O)Cn1c(SCC(=O)c2ccc(F)cc2)nc2ccccc21 | -0.423
COC(=O)c1sc2ccccc2c1-n1cccc1C(=O)C(=O)Nc1ccc(C)cc1 | -0.074
c1ccc(C2OC3c4cccc5cccc(c45)C3N2c2ccccc2)cc1 (configuration not stated) | -0.603
CC(C)Cc1ccc(S(=O)(=O)N2CCCC2)cc1 | 0.201
CCOc1ccccc1C1C2C(=O)N(c3ccccc3)C(=O)C2ON1c1ccccc1 (configuration not stated) | 1.85
CCOC(=O)c1c(C(F)(F)F)cc(-c2ccc(F)cc2)nc1C | -0.238
O=C(CSc1nnc(Cn2nnc3ccccc32)o1)Nc1cccc(Cl)c1 | 0.0579
C/C(Cl)=C/Cn1c(NCCN(C)C)nc2c1c(=O)n(C)c(=O)n2C | -0.612
CCC1CCCCN1CCCNC(=O)CC1Oc2ccccc2NC1=O (configuration not stated) | 1.27
CN(CC(=O)Nc1ccc(C#N)cc1)Cc1ccc(Cl)cc1Cl | -0.479
O=S(=O)(c1cccc2nonc12)N1CCN(c2cccc(Cl)c2)CC1 | -0.0312
CCOC(=O)C1=NNC(C(=O)c2ccc(C)cc2)C1c1ccc(OC)cc1 (configuration not stated) | -0.111
O=C(Cc1ccccc1)NC(=S)Nc1ccc2oc(-c3ccccc3F)nc2c1 | 0.222
O=C(c1cn(-c2ccccc2)nc1-c1ccc(F)cc1)N1CCCCC1 | -0.391
COc1ccc(C2=NN(CN3C(=O)C(=O)c4ccccc43)C(c3ccc(C)cc3)C2)cc1 (configuration not stated) | -0.153
CS(=O)(=O)Nc1nc2n(n1)C(c1ccccc1)C=C(c1ccc(Br)cc1)N2 (configuration not stated) | -0.473
Cc1nc2c3cc(F)ccc3n(Cc3ccccc3)c2s1 | 0.256
O=C(CCCC(=O)OCC(Cl)=C(Cl)Cl)Nc1ccccc1F | -0.429

Compound | z-score
CCCCCC(=O)N/N=C(\C)c1ccccn1 | -0.325
O=C(NN1C(=O)c2ccccc2NC1c1ccccc1OCc1ccccc1)c1ccncc1 (configuration not stated) | -0.127
CCOc1ccccc1NC1c2ccccc2C(=O)N1c1ccc(C)cn1 (configuration not stated) | -0.17
Cc1ccc(C(=O)c2oc3nc(C)cc(C)c3c2N)cc1 | 0.126
COc1cc(C(=O)NCCc2ccc3c(c2)OCCO3)ccc1OCC(=O)N1CCOCC1 | 0.0469
Cn1c(N/N=C2\CCCc3ccccc32)nc2c1c(=O)n(Cc1ccc(F)cc1)c(=O)n2C | -0.145
O=C(NCCO)c1ccccc1O | 0.211
COc1ccc(-c2noc(-c3ccccc3C(=O)Nc3cccnc3)n2)cc1OC | 0.205
Cc1nnc(C)n1/N=C/c1ccc(O)cc1 | -0.434
CCc1ccc(C2=CC(c3cc(Br)ccc3F)n3ncnc3N2)cc1 (configuration not stated) | -0.11
O=c1c2sccc2n(Cc2cc(=O)n3ccccc3n2)c(=O)n1-c1ccccc1 | -0.407
CC(=O)C1=C(Nc2ccc(C)cc2)CC(C)(O)C(C(C)=O)C1c1ccco1 (configuration not stated) | -0.0902
Cc1ccc(NC(N)=S)cc1C | -0.134
O=[N+]([O-])c1ccc(/C=N/Nc2nc(N3CCCCCC3)nc(N3CCCCCC3)n2)o1 | -0.242
O=CN1CCN(C(=O)COc2ccc(Cl)cc2Br)CC1 | -0.129
CCCCn1c(SCC(=O)/C(C#N)=C(\C)N)nc2ccccc2c1=O | active: 5.63
CCOc1cc(/C=N/O)cc(Cl)c1OC | -0.446
Cc1ccc(CCNC(=O)C2CCC(=O)N2C2CCCC2)cc1 (configuration not stated) | 0.531
COc1ccc(C)cc1S(=O)(=O)N(C)CC(=O)N1CCN(C)CC1 | -1.59
CCC1(C)NC(=O)N(CC(=O)Nc2sc3c(c2C(=O)OC)CCCCC3)C1=O (configuration not stated) | -0.222
CN(C)/C=N/C(=S)Nc1ccccc1F | 0.0261
COc1cc(OC)cc(-c2nc3nc(C)c(CCC(=O)O)c(C)n3n2)c1 | -0.302
O=C(NCc1cccs1)C1CCC(CNS(=O)(=O)c2ccc(Br)s2)CC1 (configuration not stated) | -0.263

Compound | z-score
c1ccc(-c2ccccc2-c2nc(-c3ccncc3)no2)cc1 | -0.475
COc1ccc(NC(C(=O)Nc2cccc(C(C)=O)c2)c2ccccc2)cc1 (configuration not stated) | -0.108
O=C(Nc1ccccc1Cl)N1CCN(c2ccc3nnc(-c4ccccc4)n3n2)CC1 | -0.661
C/C(N)=C(/C#N)C(=O)CSc1nnc(-c2ccccc2Br)o1 | -0.333
CS(=O)(=O)N(CC(=O)NCc1ccncc1)c1ccc(Cl)c(Cl)c1 | -0.214
CC(C(=O)Nc1ccccc1)c1ccc(-c2ccccc2)c(F)c1 (configuration not stated) | -0.0839
O=c1[nH]c(-c2ccc(F)cc2)nc2c1sc(=S)n2-c1ccccc1 | -0.202
CSc1nc(N)c(C#N)c(-c2ccccc2Cl)c1C#N | -0.153
CC1(C)C2CCC1(CS(=O)(=O)Nc1ccc(S(=O)(=O)NC3CCCCC3)cc1)C(=O)C2 (configuration not stated) | -0.219
N#CC1(C#N)[C@@H](C(=O)C23CC4CC(CC(C4)C2)C3)C12CCOCC2 | -0.244
COC(=O)C1=C(C(=O)OC)SC2(S1)C(C(=O)OC)=C(C(=O)OC)SC1=C2c2cccc(C)c2NC1(C)C | -0.103
O=C(CSc1ncn[nH]1)NC12CC3CC(CC(C3)C1)C2 | -0.299
Clc1nc(-c2ccccn2)nc2scc(-c3ccccc3)c12 | 0.138
CCOC(=O)c1sc(N)c(C#N)c1COC(=O)CNC(=O)c1ccccc1 | -1.18
Oc1ccccc1-c1nnc(COc2ccc(Cl)cc2Cl)o1 | -0.566
O=C(NCCNc1ccc([N+](=O)[O-])cc1)c1ccccc1Br | -0.315
O=C(c1cccs1)n1nc(-c2ccc(Cl)cc2)nc1NCc1ccco1 | 0.732
O=C(NCN1C(=O)C2C3C=CC(C3)C2C1=O)Nc1cccnc1 (configuration not stated) | 0.331
CN/C=C1\C(=O)C(C)(C)Oc2ccc3ccc(=O)oc3c21 | -0.738
CC(=O)C1=C(O)C(=O)N(Cc2ccccc2)C1c1ccccc1F (configuration not stated) | -1.22
